# Experimental data from PubChem BioAssay AID686978 (National Center for Advancing Translational Sciences (NCATS), 2013).
# Among all 420,000 compounds or so, about 64,000 (15%) were called active. The inconclusive results got no clear call from the source; some entries with a clear call stand among them for comparison. Calls come from the whole dose curve; as a rule, active = well fitted inhibition curve with a large enough effect; inconclusive = small, poorly fitted or top-dose-only effect; inactive = flat fitted curve, though single readings scatter. Potencies of inconclusive entries are left out as doubtful fits.
# Assay: qHTS for Inhibitors of human tyrosyl-DNA phosphodiesterase 1 (TDP1): qHTS in cells in absence of CPT; note: nearly all actives have a fitted effect of over 55% in size
# Conditions: DT40 Tdp1-/- hTDP1 cells, no CPT, ATP luminescence, 48 h; activity change, negative = growth inhibition: at 46.2 µM (top of the series)
# Outline: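 Seeded 400 DT40-hTDP1 cells/well (vehicle DMSO, no 20 nM CPT); pinned compounds; ≥48 hr at 37 °C; CellTiter-Glo luminescence as viability measure.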
# % is set by controls: 0 for no effect and ±100 for the full control effect; potency is the fitted concentration of half-maximal effect; tags give direction and shape of the fitted curve.
Structure (SMILES),Potency,"activity change, negative = growth inhibition"
CC(NNC(=S)N1CCN(c2ccccn2)CC1)c1nccc2ccccc12 (stereo not drawn),active: 0.0184 µM,
CCO[C@H]1C[C@@H](c2ccc(CC)cc2)N(S(=O)(=O)c2ccc(C)cc2)C2CC(c3ccc(CC)cc3)N(S(=O)(=O)c3ccc(C)cc3)CC21 (stereo partly drawn),"inconclusive [inhibitor, full curve]",
CC(C)c1cc(C(=O)NNC(=S)NCc2ccco2)c(O)c(C(C)C)c1,"inconclusive [inhibitor, single point]",
O=C1[C@H]2[C@@H]3CCN1CCC[C@@H]2C=C[C@@H]3c1ccc(Br)cc1,active: 18.4 µM,
O=C(CSc1nc2c([nH]c3ccccc32)c(=O)n1-c1ccc(Cl)cc1)N1CCCCCC1,active: 20.6 µM,
COc1cccc(-c2csc(-c3c(N)c(C(=O)c4ccccc4)n4ccccc34)n2)c1,active: 16.4 µM,
CN(c1ccccc1)S(=O)(=O)c1cc(C(=O)Nc2ccccc2N2CCOCC2)ccc1Cl,active: 9.2 µM,
Cc1c(C(=O)OCC(=O)NCCN2C(=O)CSC2=O)oc2c1ccc1ccccc12,,inactive: -24.9%
CCN(CC)C(=O)C1=C(C)N(CCC2=CCCCC2)C(=O)C(CC(=O)NCc2cccs2)C1 (stereo not drawn),,inactive: -27.7%
CN1CCCCC1C(=O)N1CCC(Oc2cccc(CN3CCN(c4ccccn4)CC3)c2)CC1 (stereo not drawn),"inconclusive [inhibitor, single point]",
CCCNC(=O)C1(C)CCN(Cc2ccc(-c3ccccc3)o2)C1 (stereo not drawn),"inconclusive [inhibitor, single point]",
Cn1cc(S(=O)(=O)N2CCCCC2)cc1C(=O)N1CCN(c2ccccc2F)CC1,"inconclusive [inhibitor, single point]",
C[C@H](CO)N1C[C@H](C)[C@H](CN(C)Cc2ccncc2)Oc2ncc(Br)cc2C1=O,,inactive: -0.707%
Cn1cnc([N+](=O)[O-])c1Sc1nc2ccccc2[nH]1,active: 18.4 µM,
CCOC(=O)c1c(-c2ccccc2)oc2ccc(O)c(CN3CCCC3)c12,active: 20.6 µM,
CCOC(=O)C1(Cc2ccccc2C(F)(F)F)CCN(C(C)COC)CC1 (stereo not drawn),"inconclusive [inhibitor, partial curve]",
Cc1cc(=O)oc2cc(OCC(=O)OCc3nnc(-c4ccccc4)o3)ccc12,,inactive: -6.81%
Cc1ccc(Cl)cc1N1CCN(C(=O)CCS(=O)(=O)c2cccc3nonc23)CC1,"inconclusive [inhibitor, single point]",
CCCCOc1cc(C(=O)OCCN(CC)CC)ccc1N,"inconclusive [inhibitor, single point]",
O=C(/C(=C/O)N=Nc1ccccc1)c1ccco1,"inconclusive [inhibitor, single point]",
COc1ccccc1NC(=O)COc1ccc(/C=N/NC(=O)CSCc2cc(C)cc(C)c2)cc1,,inconclusive: -32% [inhibitor]
CCOC(CCNC(=O)c1cc(-c2cccs2)nc2ccccc12)OCC,"inconclusive [inhibitor, partial curve]",
CN(C)c1ncc2nc(-c3ccc(Cl)cc3)c(=O)n(CCC#N)c2n1,,inactive: -1.57%

Structure (SMILES),Potency,"activity change, negative = growth inhibition"
CC(=O)N1CCc2cc(S(=O)(=O)N3CCc4ccccc43)ccc21,"inconclusive [inhibitor, partial curve]",
CCCSc1nc2cc(S(=O)(=O)N3CCOCC3)ccc2n1CC,"inconclusive [inhibitor, single point]",
COc1cccc(-n2nnc3c(=O)n(Cc4ccc(F)cc4)cnc32)c1,"inconclusive [inhibitor, partial curve]",
O=S(=O)(c1cccc(F)c1)N1CCN(c2nc(-c3cccs3)nc3ccccc23)CC1,"inconclusive [inhibitor, single point]",
O=C(c1cc2ccccc2oc1=O)N1CCCN(C(=O)c2cc3ccccc3oc2=O)CC1,,inactive: 8.14%
CC12CC(NC(=O)N1c1ccc(C(=O)N3CCN(c4ccc(F)cc4)CC3)cc1)c1ccccc1O2 (stereo not drawn),"inconclusive [inhibitor, single point]",
CC1(C)S[C@@H]2[C@H](NC(=O)C(N)c3ccccc3)C(=O)N2[C@H]1C(=O)OC1OC(=O)c2ccccc21 (stereo partly drawn),,inactive: -25% [at 21.1 µM]
COc1ccc(S(=O)(=O)O/N=C2\CCSc3ccc(C)cc32)cc1,"inconclusive [inhibitor, partial curve]",
CCCCCCCCn1c2c(c(=N)c3ccccc31)CCC2,active: 0.411 µM,
Cc1ccc(C(=O)NC(=S)Nc2ccc3c(c2)OCCO3)c(C)c1,"inconclusive [inhibitor, single point]",
Cc1cccc(NC(=O)c2ccc([N+](=O)[O-])o2)c1C,"inconclusive [inhibitor, single point]",
Nc1c(C(=O)c2ccccc2)sc(Nc2ccccc2)c1S(=O)(=O)c1ccccc1,"inconclusive [inhibitor, single point]",
COc1ccc(CCNC(=O)Cn2cc(S(=O)(=O)Cc3ccccc3Cl)c3ccccc32)cc1OC,"inconclusive [inhibitor, single point]",
CCSc1nnc2c(n1)OC(c1ccc(C)s1)Nc1ccccc1-2 (stereo not drawn),"inconclusive [inhibitor, full curve]",
O=C(O)c1ccc2c(c1)C(=O)N(C(Cc1ccc(O)cc1)C(=O)O)C2=O (stereo not drawn),,inactive: 1.94%
COc1ccccc1N(CC(=O)NC1CCCCC1)C(=O)CCC(=O)Nc1nccs1,,inconclusive: -30.2% [inhibitor]
CCOc1ccc2nc(NC(=O)c3ccc(OC)c(S(=O)(=O)N4CCOCC4)c3)sc2c1,"inconclusive [inhibitor, single point]",
CCOC(=O)N1CC=C2C(C#N)=C(N)C(C#N)(C#N)[C@H](c3ccccc3OCC)[C@H]2C1,"inconclusive [inhibitor, single point]",
CCN(C[C@H]1N[C@@](CC)(C(=O)OC)[C@H]2C(=O)N(Cc3ccccc3)C(=O)[C@@H]12)C(=O)C1CCCCC1,"inconclusive [inhibitor, single point]",
O=C(Nc1ccccc1C(=O)NC1CCCC1)NC1CCCC1,"inconclusive [inhibitor, single point]",
CC(C)NC(=O)N1CCC2(CC1)CCN(C(=O)c1cccc(F)c1)CC2,,inactive: -5.77%
CCOc1ccccc1NC(=O)CSc1ncc(S(=O)(=O)c2ccc(C)c(C)c2)c(N)n1,active: 23.1 µM,
COc1ccc(NC(=S)NNS(=O)(=O)c2ccc3ccccc3c2)c(OC)c1,,inconclusive: -31.7% [inhibitor]

Structure (SMILES),Potency,"activity change, negative = growth inhibition"
CC1CN=C(N(C(=O)Nc2ccccc2)c2ccc(S(=O)(=O)N3CCOCC3)cc2)S1 (stereo not drawn),"inconclusive [inhibitor, single point]",
O=C(NCC1CC1)Nc1cccs1,,inactive: -5.84%
COc1ccc(CC(=O)N2CCN=C2SCc2cccc([N+](=O)[O-])c2)cc1,,inconclusive: -31.3% [inhibitor]
CC(C)(C)c1ccc(C(=O)Nc2sc3c(c2C(=O)O)CCC3)cc1,"inconclusive [inhibitor, single point]",
Cc1ccc(NC(=S)N(CCCN2CCOCC2)Cc2cccnc2)cc1C,,inactive: -10.5%
CCOc1ccc(CCNC(=O)c2c(C)nn(-c3ccccc3)c2Cl)cc1OCC,"inconclusive [inhibitor, partial curve]",
COc1ccc(-c2csc(N(CCc3ccccc3)C(=O)COc3ccccc3)n2)cc1,"inconclusive [inhibitor, single point]",
COc1ccc(Cn2cc(F)c(=O)n(C)c2=O)cc1[N+](=O)[O-],,inactive: -9.19%
Cc1nc2cc(NC(=O)Nc3ccc(Br)cc3)ccc2o1,active: 23.1 µM,
COc1cc([N+](=O)[O-])ccc1NC(=O)c1cccc(NC(=O)C(C)C)c1,active: 29.1 µM,
CCOc1cc(N2CCOCC2)c(OCC)cc1NC(=O)Cc1ccccc1,"inconclusive [inhibitor, single point]",
CNC(=O)c1c(NC(=O)Cc2coc3ccc(C)cc23)sc2c1CCCC2,active: 18.4 µM,
COc1ccc(-c2noc(-c3ccc(NCC4CCCO4)c([N+](=O)[O-])c3)n2)cc1 (stereo not drawn),"inconclusive [inhibitor, single point]",
CCOc1ccc(/C(CC)=N/NC(=O)C2(C)CC2(Br)Br)cc1 (stereo not drawn),"inconclusive [inhibitor, single point]",
FC(F)Oc1ccc(NC(=S)NC23CC4CC(CC(C4)C2)C3)cc1,"inconclusive [inhibitor, single point]",
O=C(CSc1nc2c([nH]c3ccccc32)c(=O)n1-c1ccccc1)Nc1ccc(Cl)c(Cl)c1,active: 10.3 µM,
CCOC(=O)N1CCC(=NNc2ccnc3cc(Cl)ccc23)CC1,"inconclusive [inhibitor, single point]",
CCOC(=O)/C(=C/C=C1\Sc2cc(OCC)c(OCC)cc2N1CC)C(C)=O,active: 4.61 µM,
CC1=C(C(=O)Nc2ccccc2C(=O)N2CCN(c3ccccc3)CC2)SCCO1,active: 18.4 µM,
Cc1cc(C2=NNC(=NCc3ccccc3)SC2)c(C)n1-c1c(C)n(C)n(-c2ccccc2)c1=O,"inconclusive [inhibitor, partial curve, poor fit]",
COc1ccc(-c2cc(OC(=O)c3cccc(Cl)c3)c3c(C)oc(C)c3c(=O)c2)cc1,"inconclusive [inhibitor, single point]",
CCc1cccc2[nH]c3cc([N+](=O)[O-])ccc3c12,"inconclusive [inhibitor, partial curve]",
